From PubChem BioAssay AID588855 (National Center for Advancing Translational Sciences (NCATS), 2011)
Screen size: about 410,000 compounds; about 5,000 (1.2%) were called active. The inconclusive results got no clear call from the source; some entries with a clear call stand among them for comparison. Calls follow the shape of the dose curve; as a rule, active = well fitted inhibition curve with a large enough effect; inconclusive = small, poorly fitted or top-dose-only effect; inactive = no such curve, though single readings can be large or run the other way. A potency beside an inconclusive call is a rough fit, not a confirmed value.

Test: qHTS for Inhibitors of TGF-b; also: nearly all actives have a fitted effect of over 65% in size
Settings: HepG2 CAGA-GFP TGF-b/SMAD3 reporter, GFP fluorescence, 18 h, TGF-beta stimulated, 500 pg/mL final; series mostly up to 46.1 µM
Outline: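 Inhibition of TGF-beta-driven CAGA-GFP reporter expression in HEPG2 cells is measured by cellular GFP fluorescence after 18 h stimulation with 500 pg/mL recombinant TGF-beta in 1% FBS medium at 37 degrees C.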
Potency is read from the fitted curve at half-maximal effect; tags tell the direction and shape of the fitted curve.

Row | Compound | Potency
1 | O=C(Nc1ccccc1)N(Cc1cccs1)C1CCCC1 | inactive
2 | Cc1ccc(NC(=O)Nc2ccc3c(c2)OCO3)c(OC(F)F)c1 | inactive
3 | Cc1cccc(N=C2C(=O)Nc3c(Cl)cccc32)c1 | inconclusive: 35.5 µM [inhibitor, single point]
4 | COc1ccc(Cc2nc3ccc(S(=O)(=O)N4CCOCC4)cc3[nH]2)cc1 | inconclusive: 35.5 µM [inhibitor, partial curve, poor fit]
5 | CCCc1nc2oc3c(NCCCN(C)C)ncnc3c2c2c1CCCC2 | inconclusive: 28.2 µM [inhibitor, single point]
6 | COc1ccc(N2CCN(S(=O)(=O)CCNC(=O)C34CC5CC(CC(C5)C3)C4)CC2)cc1 | inconclusive: 28.2 µM [inhibitor, single point]
7 | O=C1N[C@@H](Cc2ccccc2)COC(=O)[C@@H](Cc2ccc(F)cc2)CC/C=C/C[C@@H]1CC(=O)N(CCO)Cc1ccccc1 | active: 22.4 µM
8 | O[C@@H]1CN(CC2CCCCC2)[C@@H](c2ccc(Cl)cc2)C[C@H]1n1cc(-c2ccc(F)cc2)nn1 | inactive
9 | CN=C1S/C(=C\c2cc(C)n(-c3ccccc3F)c2C)C(=O)N1C | inconclusive: 11.2 µM [inhibitor, partial curve]
10 | CC[C@H]1C(c2ccc(F)cc2)=NN(c2ccccc2)[C@@H]1CO | inconclusive: 35.5 µM [inhibitor, single point]
11 | CCOc1cc(/C=C/C(=O)c2ccc(C)cc2)ccc1OCC(=O)N(C)C | inconclusive: 35.5 µM [inhibitor, single point]
12 | COc1ccccc1CNC(=O)COC(=O)[C@H](Cc1c[nH]c2ccccc12)NC(=O)c1cccs1 | inconclusive: 35.5 µM [inhibitor, single point]
13 | COC(=O)c1ccc(NC(=O)Nc2ccc(OC)cc2)cc1 | inactive
14 | O=C1C=C(c2ccc3ncccc3c2)C[C@@H](c2ccc(F)cc2)C1 | inconclusive: 7.08 µM [inhibitor, partial curve, poor fit]
15 | CCOc1ccc2nc(N3C(=O)CNC3=S)sc2c1 | inconclusive: 35.5 µM [inhibitor, partial curve, poor fit]
16 | COCCN(C(=O)c1ccco1)c1nc(-c2ccccc2)cs1 | inactive
17 | CC(C)(C)c1ccc(CC(=O)N2CCC2(C)C(=O)NS(=O)(=O)c2ccccc2Cl)cc1 (stereo unspecified) | inactive
18 | CCOC(=O)c1noc2ncnc(N3CCC(C)CC3)c12 | inconclusive: 6.31 µM [inhibitor, single point]
19 | Oc1ccc(Br)cc1/C=N/NC(=S)NCCc1ccccc1 | inconclusive: 35.5 µM [inhibitor, single point]
20 | Cc1nc2c(c(C)nn2-c2ccccc2)c(C)c1CCC(=O)NCCc1ccccc1 | inconclusive: 0.251 µM [inhibitor, full curve, poor fit]
21 | Cc1ccc(C(=O)Nc2nc(C(N)Cc3ccc(C(F)(F)F)cc3)cs2)cc1 (stereo unspecified) | inconclusive: 35.5 µM [inhibitor, single point]
22 | Cc1ccc(C2CC(=O)Oc3cc(C)c(Br)c(C)c32)cc1 (stereo unspecified) | inconclusive: 10 µM [inhibitor, single point]

Row | Compound | Potency
23 | COc1ccc(NC(=O)c2nc[nH]c2C(=O)N[C@@H](C)c2ccccc2)cc1 | inconclusive: 10 µM [inhibitor, partial curve, poor fit]
24 | C=CCn1c(SC(F)F)nc2scc(-c3ccco3)c2c1=O | active: 10 µM
25 | COc1cc(OC)nc(Nc2nc(C(N)Cc3ccc(F)cc3)cs2)n1 (stereo unspecified) | inconclusive: 14.1 µM [inhibitor, single point]
26 | O=C(CSc1nc2c(c(=O)[nH]1)CN(Cc1ccc3c(c1)OCO3)CC2)Nc1cccc(Cl)c1 | inconclusive: 35.5 µM [inhibitor, single point]
27 | CC1CC=CC2C1C(=O)N(Cc1ccccc1)C2c1ccc2ccccc2c1Br (stereo unspecified) | inconclusive: 22.4 µM [inhibitor, single point]
28 | CS(=O)(=O)c1ncc(Cl)c(C(=O)Nc2ccc(N3CCOCC3)cc2)n1 | inconclusive: 35.5 µM [inhibitor, single point]
29 | Cc1cc(C)c(NC(=S)NC(=O)c2ccccc2)cc1C | inactive
30 | Cc1ccc(N2C(=O)C(c3c(C)[nH]n(-c4ccccc4)c3=O)(C(F)(F)F)C3=C2CC(C)(C)CC3=O)cc1 (stereo unspecified) | inconclusive: 15.8 µM [inhibitor, single point]
31 | COc1ccc(CCNC(=O)C2CCN(C(=O)c3ccc(C(C)(C)C)cc3)CC2)cc1 | inactive
32 | CCCCn1c(=O)[nH]c(=O)c2c1nc(-c1ccsc1)n2Cc1ccccc1 | inconclusive: 35.5 µM [inhibitor, single point]
33 | O=C(c1c[nH]c(C(=O)C(Cl)(Cl)Cl)c1)c1ccccc1Br | inactive
34 | COc1ccc(NC(=O)COC(=O)CNC(=O)C2CCCCC2)cc1 | inconclusive: 0.447 µM [inhibitor, full curve, poor fit]
35 | CN(C)CCCN(C(=O)c1ccc(Br)s1)c1nc2cc3c(cc2s1)OCO3 | inconclusive: 14.1 µM [inhibitor, single point]
36 | CN1CCN(C2Cc3cc(F)ccc3Sc3ccc(Cl)cc32)CC1 (stereo unspecified) | active: 31.6 µM
37 | Fc1c(F)c(F)c(N/N=C/c2c[nH]c3ccccc23)c(F)c1F | inconclusive: 35.5 µM [inhibitor, single point]
38 | Cc1ccc2c(C(=O)CN3CCCCC3CCO)c(C)[nH]c2c1 (stereo unspecified) | inconclusive: 0.562 µM [inhibitor, partial curve, poor fit]
39 | Cc1ccc(C)c(NC(=S)N/N=C2\CCc3ccccc32)c1 | inconclusive: 35.5 µM [inhibitor, single point]
40 | CCOC(=O)c1cccc(NC(=O)CSc2nnc(C3CCCCC3)n2C)c1 | inconclusive: 6.31 µM [inhibitor, single point]
41 | Fc1cccc(CNc2ncnc3cc(Cl)ccc23)c1F | inconclusive: 3.55 µM [inhibitor, full curve, poor fit]
42 | Cc1ccc(N/N=C(\C#N)C(N)=S)cc1C | inconclusive: 1.12 µM [inhibitor, partial curve, poor fit]
43 | CCc1cccc(NS(=O)(=O)c2c(C)nc3sc(CC)nn3c2=O)c1 | inconclusive: 5.62 µM [inhibitor, single point]
44 | COc1ccc(S(=O)(=O)Cc2ccc(C(=O)N3CCN(c4cccc(C)c4)C(C)C3)o2)cc1 (stereo unspecified) | inconclusive: 4.47 µM [inhibitor, full curve, poor fit]

Row | Compound | Potency
45 | Cc1ccc(NC(=O)Cn2c(=O)n(CCc3ccccc3)c(=O)c3c4c(sc32)CCCC4)c(C)c1 | inactive
46 | CCOC(=O)N1CCC(N2Cc3cccc(C(=O)NCc4ccccn4)c3C2=O)CC1 | inconclusive: 11.2 µM [inhibitor, partial curve, poor fit]
47 | CCn1c(SCC(=O)Nc2ccc(Cl)cc2)nc2nc3c(cc2c1=O)CCCC3 | inactive
48 | CCc1nc2ccc(C(=O)N3CCN(c4ccccc4)CC3)cc2nc1CC | inconclusive: 2 µM [inhibitor, full curve]
49 | CCOC(=O)c1[nH]c(C)c(C(=O)Nc2ccccc2F)c1C | inconclusive: 6.31 µM [inhibitor, single point]
50 | COc1ccc(CCNC(=O)Nc2ccc([N+](=O)[O-])cc2)cc1OC | inactive
51 | Cc1ccc(S(=O)(=O)CCC(=O)N2CCN(c3ccccc3F)CC2)cc1 | inactive
52 | O=C(O)c1cn(-c2ccc(F)cc2)c2cc(N3CCNCC3)c(F)cc2c1=O | inactive
53 | CCN(CC)c1ccc(/C=N/NC(=S)NCc2ccccc2)cc1 | inactive
54 | CCc1cc(-c2n[nH]c(=S)n2-c2cccc(C)c2)cs1 | inactive
55 | CCOC(=O)N1CCc2c(sc(NCc3cccc(F)c3)c2C(=O)Nc2ccccc2OCC)C1 | inconclusive: 25.1 µM [inhibitor, partial curve, poor fit]
56 | c1ccc2c(C(c3c[nH]c4ccccc34)c3c[nH]c4ccccc34)c[nH]c2c1 | inconclusive: 10 µM [inhibitor, partial curve, poor fit]
57 | COc1ccc(CSc2nnc(C)n2N)cc1 | inconclusive: 0.1 µM [inhibitor, full curve, poor fit]
58 | COc1ccc(/C=N/n2c(N)nc(-c3ccccc3)c2-c2ccccc2)cc1 | inconclusive: 14.1 µM [inhibitor, single point]
59 | Oc1ccc(/C=N/NC(=S)Nc2cccnc2)c(O)c1 | inconclusive: 2.82 µM [inhibitor, partial curve, poor fit]
60 | O=C(CN1C(=O)/C(=C2/SC(=S)N(CCS(=O)(=O)O)C2=O)c2ccccc21)Nc1cccc(Br)c1 | inactive
61 | Cn1cccc1C(=O)NC(=O)COC(=O)CC12CC3CC(CC(Br)(C3)C1)C2 | inconclusive: 0.631 µM [inhibitor, full curve, poor fit]
62 | COc1ccc(OC)c(N(C)S(=O)(=O)c2cc3c(cc2C)NC(=O)CO3)c1 | inactive
63 | COc1ccccc1-c1cc2nc(C)c(CCC(=O)Nc3ccc(Br)c(C)c3)c(C)n2n1 | inconclusive: 11.2 µM [inhibitor, partial curve, poor fit]
64 | CCn1c(C)cc(C(=O)CSc2nnc(C3CC3)n2C2CC2)c1C | inactive
65 | CC(=O)Nc1ccc(NC(=O)C(=O)NCC(c2ccco2)N2CCc3ccccc32)cc1 (stereo unspecified) | inconclusive: 25.1 µM [inhibitor, single point]
66 | CCn1cc(C(=O)N2CCN(c3cccc(C(F)(F)F)c3)CC2)c2cc(OC)c(OC)cc2c1=O | inconclusive: 10 µM [inhibitor, partial curve, poor fit]
